# Reference: the supplement of paper PMC12217912
# The other results are listed elsewhere or left out. The full chains were built here from the parent and the listed change. Values near 0.05 are background.
# B1: TEV protease; numbered along this chain (parent)
# chain: MGESLFKGPRDYNPISSSICHLTNESDGHTTSLYGIGFGPFIITNKHLFRRNNGTLVVQSLHGVFKVKDTTTLQQHLVDGRDMIIIRMPKDFPPFPQKLKFREPQREERICLVTTNFQTKSMSSMVSDTSCTFPSGDGIFWKHWIQTKDGQCGSPLVSTRDGFIVGIHSASNFTNTNNYFTSVPKNFMELLTNQEAQQWVSGWRLNADSVLWGGHKVFMVKPEEPFQPVKEATQL
# Variants of: B1
# Assay: raw area under fraction-flipped curve 0-4 h after induction (AUC4h, not background-subtracted), DNA-recorder readout of cleavage of the substrate (dimensionless); higher = more cleavage of the substrate by the protease variant
# Details: temperature: 34 °C; time window: 0-4 h after rhamnose induction
# Procedure: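 In vivo DNA recorder in E. coli TOP10(DE3) ΔrhaA at 34 °C. Each TEVp single-site mutant (parent TEVp 0) is paired with a single-site variant of the 7-mer TEVs (canonical ENLYFQ|S). The substrate sits between flexible linkers in a Bxb1-sfGFP-TEVs-SsrA fusion, so cleavage stabilises Bxb1 and speeds flipping of a recombination array, read by NGS. The value is the raw area under the fraction-flipped curve over 0-4 h after rhamnose induction (AUC4h), with ≥20 reads per time point. It is not background-subtracted; inactive controls average about 0.047.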
# 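Note: Bxb1 expression induced with 0.2% (w/v) L-rhamnose at OD600 near 0.5, cultures sampled hourly, flipped fraction per protease–substrate barcode pair counted by paired-end Illumina sequencing.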
variant,measurement,value
E223Q,area with substrate ENLYFQA,0.0813
same,area with substrate ENLYFQE,0.0525
same,area with substrate ENLYFQI,0.059
same,area with substrate ENLYFQK,0.0683
same,area with substrate ENLYFQL,0.0773
same,area with substrate ENLYFQM,0.104
same,area with substrate ENLYFQS,0.104
same,area with substrate ENLYFQT,0.0628
E224D,area with substrate ENLYFQA,0.0632
same,area with substrate ENLYFQC,0.11
same,area with substrate ENLYFQD,0.0827
same,area with substrate ENLYFQF,0.0906
same,area with substrate ENLYFQG,0.133
same,area with substrate ENLYFQH,0.0814
same,area with substrate ENLYFQI,0.0702
same,area with substrate ENLYFQK,0.0904
same,area with substrate ENLYFQL,0.0607
same,area with substrate ENLYFQM,0.109
same,area with substrate ENLYFQN,0.0665
same,area with substrate ENLYFQQ,0.0728
same,area with substrate ENLYFQR,0.0602
same,area with substrate ENLYFQS,0.108
same,area with substrate ENLYFQT,0.0695
same,area with substrate ENLYFQV,0.0594
same,area with substrate ENLYFQW,0.0627
same,area with substrate ENLYFQY,0.0701
E224I,area with substrate ENLYFQA,0.0735
same,area with substrate ENLYFQD,0.0694
same,area with substrate ENLYFQG,0.0852
same,area with substrate ENLYFQH,0.0841
same,area with substrate ENLYFQI,0.0596
same,area with substrate ENLYFQK,0.111
same,area with substrate ENLYFQL,0.073
same,area with substrate ENLYFQN,0.0817
same,area with substrate ENLYFQP,0.0573
same,area with substrate ENLYFQR,0.0777
same,area with substrate ENLYFQS,0.0959
same,area with substrate ENLYFQV,0.0703
E224Q,area with substrate ENLYFQA,0.1
same,area with substrate ENLYFQC,0.13
same,area with substrate ENLYFQD,0.0672
same,area with substrate ENLYFQF,0.0667
same,area with substrate ENLYFQG,0.0844
same,area with substrate ENLYFQI,0.0722
same,area with substrate ENLYFQK,0.0706
same,area with substrate ENLYFQL,0.0723
same,area with substrate ENLYFQM,0.0836
same,area with substrate ENLYFQN,0.0756
same,area with substrate ENLYFQR,0.0555
same,area with substrate ENLYFQS,0.102
same,area with substrate ENLYFQT,0.0726
same,area with substrate ENLYFQV,0.0595
same,area with substrate ENLYFQW,0.081
same,area with substrate ENLYFQY,0.081
F226D,area with substrate ENLYFQA,0.11
same,area with substrate ENLYFQG,0.104
same,area with substrate ENLYFQK,0.0743
same,area with substrate ENLYFQL,0.0616
same,area with substrate ENLYFQM,0.148
same,area with substrate ENLYFQN,0.0566
same,area with substrate ENLYFQS,0.113
same,area with substrate ENLYFQT,0.0759
same,area with substrate ENLYFQW,0.101
E231W,area with substrate ENLYFQA,0.0738
same,area with substrate ENLYFQC,0.073
same,area with substrate ENLYFQD,0.0489
same,area with substrate ENLYFQF,0.0612
same,area with substrate ENLYFQG,0.105
same,area with substrate ENLYFQH,0.0689
same,area with substrate ENLYFQI,0.0616
same,area with substrate ENLYFQK,0.0645
same,area with substrate ENLYFQL,0.0573
same,area with substrate ENLYFQM,0.0745
same,area with substrate ENLYFQN,0.0792
same,area with substrate ENLYFQR,0.054
same,area with substrate ENLYFQS,0.0878
same,area with substrate ENLYFQT,0.0663
same,area with substrate ENLYFQW,0.0667
same,area with substrate ENLYFQY,0.0617
A232L,area with substrate ENLYFQA,0.0921
same,area with substrate ENLYFQD,0.0707
same,area with substrate ENLYFQG,0.0924
same,area with substrate ENLYFQK,0.067
same,area with substrate ENLYFQM,0.0868
same,area with substrate ENLYFQP,0.0789
same,area with substrate ENLYFQQ,0.0744
same,area with substrate ENLYFQR,0.0548
same,area with substrate ENLYFQS,0.0977
same,area with substrate ENLYFQT,0.0719
same,area with substrate ENLYFQY,0.0754
A232R,area with substrate ENLYFQA,0.111
same,area with substrate ENLYFQC,0.114
same,area with substrate ENLYFQE,0.0701
same,area with substrate ENLYFQG,0.14
same,area with substrate ENLYFQH,0.0913
same,area with substrate ENLYFQN,0.0841
same,area with substrate ENLYFQQ,0.0643
same,area with substrate ENLYFQR,0.0677
same,area with substrate ENLYFQS,0.104
same,area with substrate ENLYFQT,0.0654
same,area with substrate ENLYFQV,0.0667
same,area with substrate ENLYFQW,0.0678
same,area with substrate ENLYFQY,0.0839
A232Y,area with substrate ENLYFQA,0.103
same,area with substrate ENLYFQC,0.106
same,area with substrate ENLYFQI,0.04
same,area with substrate ENLYFQK,0.0525
same,area with substrate ENLYFQL,0.058
same,area with substrate ENLYFQN,0.0799
same,area with substrate ENLYFQR,0.0616
same,area with substrate ENLYFQS,0.105
same,area with substrate ENLYFQT,0.0708
same,area with substrate ENLYFQV,0.0833
same,area with substrate ENLYFQY,0.113
Q234G,area with substrate ENLYFQA,0.108
same,area with substrate ENLYFQC,0.13
same,area with substrate ENLYFQD,0.061
same,area with substrate ENLYFQG,0.087
same,area with substrate ENLYFQH,0.0914
same,area with substrate ENLYFQI,0.0615
same,area with substrate ENLYFQL,0.0609
same,area with substrate ENLYFQM,0.1
same,area with substrate ENLYFQP,0.0583
same,area with substrate ENLYFQR,0.0545
same,area with substrate ENLYFQS,0.106
same,area with substrate ENLYFQT,0.0617
same,area with substrate ENLYFQW,0.101
L235H,area with substrate ENLYFQA,0.094
same,area with substrate ENLYFQC,0.0967
same,area with substrate ENLYFQF,0.0825
same,area with substrate ENLYFQH,0.0759
same,area with substrate ENLYFQI,0.0614
same,area with substrate ENLYFQK,0.0611
same,area with substrate ENLYFQL,0.127
same,area with substrate ENLYFQN,0.0886
same,area with substrate ENLYFQP,0.0514
same,area with substrate ENLYFQS,0.109
same,area with substrate ENLYFQT,0.0545
L5D,area with substrate ENLYFQC,0.108
same,area with substrate ENLYFQD,0.0828
same,area with substrate ENLYFQG,0.0958
same,area with substrate ENLYFQH,0.0802
same,area with substrate ENLYFQI,0.0677
same,area with substrate ENLYFQK,0.0467
same,area with substrate ENLYFQN,0.0889
same,area with substrate ENLYFQP,0.0622
same,area with substrate ENLYFQQ,0.0832
same,area with substrate ENLYFQS,0.107
same,area with substrate ENLYFQT,0.066
same,area with substrate ENLYFQV,0.0655
same,area with substrate ENLYFQW,0.0688
G8M,area with substrate ENLYFQC,0.0661
same,area with substrate ENLYFQK,0.053
same,area with substrate ENLYFQM,0.0882
same,area with substrate ENLYFQN,0.0852
same,area with substrate ENLYFQS,0.0909
same,area with substrate ENLYFQT,0.0562
same,area with substrate ENLYFQW,0.0391
G8W,area with substrate ENLYFQC,0.0888
same,area with substrate ENLYFQD,0.0465
same,area with substrate ENLYFQI,0.0608
same,area with substrate ENLYFQK,0.0534
same,area with substrate ENLYFQL,0.064
same,area with substrate ENLYFQN,0.0765
same,area with substrate ENLYFQS,0.0884
same,area with substrate ENLYFQT,0.0621
same,area with substrate ENLYFQW,0.0702
